This is a selection; strong and weak results do not stand in their true shares. At the low end of the ranking the order means little. The list shows a part of the results.
Experiments:
[1] = molecular target: AGO2 WT (phosphosite mutant background) S387D + S824A + S828D + S831D + S834A (UniProt Q9UKV8); assay: RNA Bind-n-Seq (nitrocellulose filter binding and sequencing); conditions: constant regions annealed to DNA blockers; guide miR-122 5' phosphate; 30 mM Tris pH 8.0, 100 mM potassium acetate, 2 mM magnesium acetate, 0.5 mM TCEP, 0.005% NP-40, 0.01 mg/ml yeast tRNA; 3 nM AGO2-miR-122, 100 nM RNA library …; high values mean tight binding
[2] = molecular target: AGO2 F182del S387D + S824A + S828D + S831D + S834A + del182-182 (UniProt Q9UKV8); assay: as above; conditions: constant regions annealed to DNA blockers; guide miR-122 5' phosphate; 30 mM Tris pH 8.0, 100 mM potassium acetate, 2 mM magnesium acetate, 0.5 mM TCEP, 0.005% NP-40, 0.01 mg/ml yeast tRNA; 3 nM AGO2-miR-122, 100 nM RNA library …; high values mean tight binding

| Sequence | binding signal (fold enrichment over input) [1] | binding signal (fold enrichment over input) [2] |
| --- | --- | --- |
| GAGUUCUACAGUCCGACGAUCCCAACACACCCCACACCUGGAAUUCUCGGGUGCCAA / UGGAGUGUGACAAUGGUGUUUG / GATCGTCGGACTGTAGAACTC / TTGGCACCCGAGAATTCCA | 0.238 | 2.15 |
| GAGUUCUACAGUCCGACGAUCCCAACACGCUUUGCACCUGGAAUUCUCGGGUGCCAA / UGGAGUGUGACAAUGGUGUUUG / GATCGTCGGACTGTAGAACTC / TTGGCACCCGAGAATTCCA | 0.0892 | 0.0465 |
| GAGUUCUACAGUCCGACGAUCCCAACGUAUUUUACACCUGGAAUUCUCGGGUGCCAA / UGGAGUGUGACAAUGGUGUUUG / GATCGTCGGACTGTAGAACTC / TTGGCACCCGAGAATTCCA | 0.109 | 0.0626 |
| GAGUUCUACAGUCCGACGAUCCCAACACGUCCCACACCUGGAAUUCUCGGGUGCCAA / UGGAGUGUGACAAUGGUGUUUG / GATCGTCGGACTGTAGAACTC / TTGGCACCCGAGAATTCCA | 0.127 | 0.446 |
| GAGUUCUACAGUCCGACGAUCCCAACAUAUUUCGCACCUGGAAUUCUCGGGUGCCAA / UGGAGUGUGACAAUGGUGUUUG / GATCGTCGGACTGTAGAACTC / TTGGCACCCGAGAATTCCA | 0.0922 | 0.0521 |
| GAGUUCUACAGUCCGACGAUCCCAACGCAUCCUACACCUGGAAUUCUCGGGUGCCAA / UGGAGUGUGACAAUGGUGUUUG / GATCGTCGGACTGTAGAACTC / TTGGCACCCGAGAATTCCA | 0.105 | 0.11 |
| GAGUUCUACAGUCCGACGAUCCCAACGUGCUUUGCACCUGGAAUUCUCGGGUGCCAA / UGGAGUGUGACAAUGGUGUUUG / GATCGTCGGACTGTAGAACTC / TTGGCACCCGAGAATTCCA | 0.117 | 0.0494 |
| GAGUUCUACAGUCCGACGAUCCCAACGUAUUCUACACCUGGAAUUCUCGGGUGCCAA / UGGAGUGUGACAAUGGUGUUUG / GATCGTCGGACTGTAGAACTC / TTGGCACCCGAGAATTCCA | 0.115 | 0.0789 |
| GAGUUCUACAGUCCGACGAUCCCAACACGCCUCACACCUGGAAUUCUCGGGUGCCAA / UGGAGUGUGACAAUGGUGUUUG / GATCGTCGGACTGTAGAACTC / TTGGCACCCGAGAATTCCA | 0.15 | 0.822 |
| GAGUUCUACAGUCCGACGAUCCCAACACAUCCUGCACCUGGAAUUCUCGGGUGCCAA / UGGAGUGUGACAAUGGUGUUUG / GATCGTCGGACTGTAGAACTC / TTGGCACCCGAGAATTCCA | 0.144 | 0.153 |
| GAGUUCUACAGUCCGACGAUCCCAACGUGCCUCGCACCUGGAAUUCUCGGGUGCCAA / UGGAGUGUGACAAUGGUGUUUG / GATCGTCGGACTGTAGAACTC / TTGGCACCCGAGAATTCCA | 0.107 | 0.052 |
| GAGUUCUACAGUCCGACGAUCCCAACGCGCUCUGCACCUGGAAUUCUCGGGUGCCAA / UGGAGUGUGACAAUGGUGUUUG / GATCGTCGGACTGTAGAACTC / TTGGCACCCGAGAATTCCA | 0.103 | 0.0652 |
| GAGUUCUACAGUCCGACGAUCCCAACGUGUUCUACACCUGGAAUUCUCGGGUGCCAA / UGGAGUGUGACAAUGGUGUUUG / GATCGTCGGACTGTAGAACTC / TTGGCACCCGAGAATTCCA | 0.0969 | 0.0499 |
| GAGUUCUACAGUCCGACGAUCCCAACAUGUCUUACACCUGGAAUUCUCGGGUGCCAA / UGGAGUGUGACAAUGGUGUUUG / GATCGTCGGACTGTAGAACTC / TTGGCACCCGAGAATTCCA | 0.142 | 0.57 |
| GAGUUCUACAGUCCGACGAUCCCAACGUGCCUUGCACCUGGAAUUCUCGGGUGCCAA / UGGAGUGUGACAAUGGUGUUUG / GATCGTCGGACTGTAGAACTC / TTGGCACCCGAGAATTCCA | 0.104 | 0.0442 |
| GAGUUCUACAGUCCGACGAUCCCAACAUGUCCUGCACCUGGAAUUCUCGGGUGCCAA / UGGAGUGUGACAAUGGUGUUUG / GATCGTCGGACTGTAGAACTC / TTGGCACCCGAGAATTCCA | 0.0771 | 0.0462 |
| GAGUUCUACAGUCCGACGAUCCCAACGCAUUCCGCACCUGGAAUUCUCGGGUGCCAA / UGGAGUGUGACAAUGGUGUUUG / GATCGTCGGACTGTAGAACTC / TTGGCACCCGAGAATTCCA | 0.108 | 0.0884 |
| GAGUUCUACAGUCCGACGAUCCCAACACAUCUUACACCUGGAAUUCUCGGGUGCCAA / UGGAGUGUGACAAUGGUGUUUG / GATCGTCGGACTGTAGAACTC / TTGGCACCCGAGAATTCCA | 0.114 | 0.33 |

| Sequence | binding signal (fold enrichment over input) [1] | binding signal (fold enrichment over input) [2] |
| --- | --- | --- |
| GAGUUCUACAGUCCGACGAUCCCAACACGUUUUGCACCUGGAAUUCUCGGGUGCCAA / UGGAGUGUGACAAUGGUGUUUG / GATCGTCGGACTGTAGAACTC / TTGGCACCCGAGAATTCCA | 0.0911 | 0.0468 |
| GAGUUCUACAGUCCGACGAUCCCAACGUGCUCUACACCUGGAAUUCUCGGGUGCCAA / UGGAGUGUGACAAUGGUGUUUG / GATCGTCGGACTGTAGAACTC / TTGGCACCCGAGAATTCCA | 0.108 | 0.0712 |
| GAGUUCUACAGUCCGACGAUCCCAACAUGUCUCACACCUGGAAUUCUCGGGUGCCAA / UGGAGUGUGACAAUGGUGUUUG / GATCGTCGGACTGTAGAACTC / TTGGCACCCGAGAATTCCA | 0.232 | 1.79 |
| GAGUUCUACAGUCCGACGAUCCCAACGUAUCUUACACCUGGAAUUCUCGGGUGCCAA / UGGAGUGUGACAAUGGUGUUUG / GATCGTCGGACTGTAGAACTC / TTGGCACCCGAGAATTCCA | 0.103 | 0.0771 |
| GAGUUCUACAGUCCGACGAUCCCAACACGCUUUACACCUGGAAUUCUCGGGUGCCAA / UGGAGUGUGACAAUGGUGUUUG / GATCGTCGGACTGTAGAACTC / TTGGCACCCGAGAATTCCA | 0.104 | 0.135 |
| GAGUUCUACAGUCCGACGAUCCCAACGUAUCCUACACCUGGAAUUCUCGGGUGCCAA / UGGAGUGUGACAAUGGUGUUUG / GATCGTCGGACTGTAGAACTC / TTGGCACCCGAGAATTCCA | 0.109 | 0.121 |
| GAGUUCUACAGUCCGACGAUCCCAACAUAUUUUACACCUGGAAUUCUCGGGUGCCAA / UGGAGUGUGACAAUGGUGUUUG / GATCGTCGGACTGTAGAACTC / TTGGCACCCGAGAATTCCA | 0.127 | 0.0795 |
| GAGUUCUACAGUCCGACGAUCCCAACGCGUUUUACACCUGGAAUUCUCGGGUGCCAA / UGGAGUGUGACAAUGGUGUUUG / GATCGTCGGACTGTAGAACTC / TTGGCACCCGAGAATTCCA | 0.107 | 0.0706 |
| GAGUUCUACAGUCCGACGAUCCCAACAUGCUUUGCACCUGGAAUUCUCGGGUGCCAA / UGGAGUGUGACAAUGGUGUUUG / GATCGTCGGACTGTAGAACTC / TTGGCACCCGAGAATTCCA | 0.0853 | 0.0347 |
| GAGUUCUACAGUCCGACGAUCCCAACAUACCCUACACCUGGAAUUCUCGGGUGCCAA / UGGAGUGUGACAAUGGUGUUUG / GATCGTCGGACTGTAGAACTC / TTGGCACCCGAGAATTCCA | 0.0939 | 0.0571 |
| GAGUUCUACAGUCCGACGAUCCCAACGUGCCCUACACCUGGAAUUCUCGGGUGCCAA / UGGAGUGUGACAAUGGUGUUUG / GATCGTCGGACTGTAGAACTC / TTGGCACCCGAGAATTCCA | 0.114 | 0.0533 |
| GAGUUCUACAGUCCGACGAUCCCAACGUGUCCUACACCUGGAAUUCUCGGGUGCCAA / UGGAGUGUGACAAUGGUGUUUG / GATCGTCGGACTGTAGAACTC / TTGGCACCCGAGAATTCCA | 0.101 | 0.0686 |
| GAGUUCUACAGUCCGACGAUCCCAACGCGUCUUGCACCUGGAAUUCUCGGGUGCCAA / UGGAGUGUGACAAUGGUGUUUG / GATCGTCGGACTGTAGAACTC / TTGGCACCCGAGAATTCCA | 0.0948 | 0.0385 |
| GAGUUCUACAGUCCGACGAUCCCAACGUAUUUCGCACCUGGAAUUCUCGGGUGCCAA / UGGAGUGUGACAAUGGUGUUUG / GATCGTCGGACTGTAGAACTC / TTGGCACCCGAGAATTCCA | 0.0879 | 0.0439 |
| GAGUUCUACAGUCCGACGAUCCCAACGUAUUUUGCACCUGGAAUUCUCGGGUGCCAA / UGGAGUGUGACAAUGGUGUUUG / GATCGTCGGACTGTAGAACTC / TTGGCACCCGAGAATTCCA | 0.0918 | 0.0411 |
| GAGUUCUACAGUCCGACGAUCCCAACAUGUUCUACACCUGGAAUUCUCGGGUGCCAA / UGGAGUGUGACAAUGGUGUUUG / GATCGTCGGACTGTAGAACTC / TTGGCACCCGAGAATTCCA | 0.108 | 0.182 |
| GAGUUCUACAGUCCGACGAUCCCAACACAUCCUACACCUGGAAUUCUCGGGUGCCAA / UGGAGUGUGACAAUGGUGUUUG / GATCGTCGGACTGTAGAACTC / TTGGCACCCGAGAATTCCA | 0.139 | 0.299 |
| GAGUUCUACAGUCCGACGAUCCCAACAUGUUCUGCACCUGGAAUUCUCGGGUGCCAA / UGGAGUGUGACAAUGGUGUUUG / GATCGTCGGACTGTAGAACTC / TTGGCACCCGAGAATTCCA | 0.0901 | 0.0443 |
